The test deals with T1, human M2 receptor (Homo sapiens, UniProt P08172).
T1 sequence (P08172 1-466): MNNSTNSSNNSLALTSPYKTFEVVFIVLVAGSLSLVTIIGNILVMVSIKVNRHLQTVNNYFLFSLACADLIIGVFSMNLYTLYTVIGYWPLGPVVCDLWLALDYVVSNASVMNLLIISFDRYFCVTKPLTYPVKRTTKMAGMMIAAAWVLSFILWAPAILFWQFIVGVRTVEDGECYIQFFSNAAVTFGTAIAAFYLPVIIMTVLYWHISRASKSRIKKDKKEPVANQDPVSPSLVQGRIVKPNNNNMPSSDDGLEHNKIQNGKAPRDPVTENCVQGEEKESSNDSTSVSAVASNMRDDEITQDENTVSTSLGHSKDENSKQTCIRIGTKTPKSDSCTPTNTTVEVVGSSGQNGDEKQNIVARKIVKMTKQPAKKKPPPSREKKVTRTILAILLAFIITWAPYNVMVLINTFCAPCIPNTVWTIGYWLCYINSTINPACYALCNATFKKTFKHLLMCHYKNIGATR
The conditions noted are these: boosting of the acetylcholine effect at an EC20 acetylcholine concentration; for Emax: read-out: Efficiency, M2-GIRK1/4 activation test; for Efficiency: M2-GIRK1/4 activation test.

Consider `CC[C@@H](NC(=O)c1cn(-c2ccc(F)cc2F)c2nc(N3CC(C)CC3=O)ccc2c1=O)C(F)(F)F` (mixture of isomers) [Example 301, 1-(2,4-Difluorophenyl)-7-[4-methyl-2-oxopyrrolidin-1-yl]-4-oxo-N-[(2R)-1,1,1-trifluorobutan-2-yl]-1,4-dihydro-1,8-naphthyridine-3-carboxamide], for which the Emax stood at 95.5%.

`CC[C@@H](NC(=O)c1cn(-c2c(F)cccc2F)c2nc(N3CC4CC4(O)C3)ccc2c1=O)C(F)(F)F` (mixture of isomers) [Example 304, 1-(2,6-Difluorophenyl)-7-[1-hydroxy-3-azabicyclo[3.1.0]hex-3-yl]-4-oxo-N-[(2R)-1,1,1-trifluorobutan-2-yl]-1,4-dihydro-1,8-naphthyridine-3-carboxamide]: the Emax came out at 93%.

Regarding `CC[C@@H](NC(=O)c1cn(-c2c(F)cccc2Cl)c2nc(N3CC4CC4(O)C3)ccc2c1=O)C(F)(F)F` (mixture of isomers) [Example 310, 1-(2-Chloro-6-fluorophenyl)-7-[1-hydroxy-3-azabicyclo[3.1.0]hex-3-yl]-4-oxo-N-[(2R)-1,1,1-trifluorobutan-2-yl]-1,4-dihydro-1,8-naphthyridine-3-carboxamide], the Emax was found to be 94.5%.

Take `C[C@H](NC(=O)c1cn(-c2c(F)cccc2F)c2nc(N3CC4CC4(O)C3)ccc2c1=O)C(F)(F)F` (mixture of isomers) [Example 311, 1-(2,6-Difluorophenyl)-7-[1-hydroxy-3-azabicyclo[3.1.0]hex-3-yl]-4-oxo-N-[(2S)-1,1,1-trifluoropropan-2-yl]-1,4-dihydro-1,8-naphthyridine-3-carboxamide]: the Emax is 95%.

For the compound `C[C@H](NC(=O)c1cn(-c2c(F)cc(F)cc2F)c2nc(N3CC4CC4(O)C3)ccc2c1=O)C(F)(F)F` (mixture of isomers) [Example 316, 7-[1-Hydroxy-3-azabicyclo[3.1.0]hex-3-yl]-4-oxo-1-(2,4,6-trifluorophenyl)-N-[(2S)-1,1,1-trifluoropropan-2-yl]-1,4-dihydro-1,8-naphthyridine-3-carboxamide], the Emax is 97%.

For `O=C(N[C@H](C1CC1)C(F)(F)F)c1cn(-c2c(F)cccc2F)c2nc(N3CC4CC4(O)C3)ccc2c1=O` (mixture of isomers) [Example 319, N-[(1R)-1-Cyclopropyl-2,2,2-trifluoroethyl]-1-(2,6-difluorophenyl)-7-[1-hydroxy-3-azabicyclo[3.1.0]hex-3-yl]-4-oxo-1,4-dihydro-1,8-naphthyridine-3-carboxamide], the Emax was found to be 95.5%.

For the compound `CC1(O)CCN(c2ccc3c(=O)c(C(=O)NC(C4CC4)C(F)(F)F)cn(-c4c(F)cccc4F)c3n2)C1` (racemic) [Example 326, N-[1-Cyclopropyl-2,2,2-trifluoroethyl]-1-(2,6-difluorophenyl)-7-[3-hydroxy-3-methylpyrrolidin-1-yl]-4-oxo-1,4-dihydro-1,8-naphthyridine-3-carboxamide], the Emax turned out to be 100%.

Take `CC[C@@H](NC(=O)c1cn(-c2ccc(F)cc2F)c2nc(N3CCC(C)(O)C3=O)ccc2c1=O)C(F)(F)F` (single isomer, unassigned) [Example 195]: the Emax is 96.3%.

`CC[C@@H](NC(=O)c1cn(-c2ccc(F)cc2F)c2nc(N3CCC(C)(O)C3=O)ccc2c1=O)C(F)(F)F` (single isomer, unassigned) [Example 196] yielded an Efficiency of 98.0%.

As to `CC[C@@H](NC(=O)c1cn(-c2ccc(F)cc2F)c2nc(N3CCC(C)(OC)C3=O)ccc2c1=O)C(F)(F)F` (single isomer, unassigned) [Example 198], the Emax came to 96%.

Consider `CC[C@@H](NC(=O)c1cn(-c2ccc(F)cc2F)c2nc(N3CCC(C)(OC)C3=O)ccc2c1=O)C(F)(F)F` (single isomer, unassigned) [Example 199], for which the Efficiency is given as 96.0%.

As for `O=C(N[C@H](c1ccccc1Cl)C(F)(F)F)c1cn(-c2ccc(F)cc2F)c2nc(N3CCCC(O)C3=O)ccc2c1=O` (single isomer, unassigned) [Example 207], the Emax was determined as 100%.

`O=C(N[C@H](c1ccccc1Cl)C(F)(F)F)c1cn(-c2ccc(F)cc2F)c2nc(N3CCCC(O)C3=O)ccc2c1=O` (single isomer, unassigned) [Example 208] registered an Efficiency of 97.5%.

For `O=C(N[C@H](c1ccccc1Cl)C(F)(F)F)c1cn(-c2ccc(F)cc2F)c2nc(N3CCCC(O)C3=O)ccc2c1=O` (single isomer, unassigned) [Example 209], the Efficiency is on record as 94.7%.

Compound `O=C(N[C@H](c1ccccc1Cl)C(F)(F)F)c1cn(-c2ccc(F)cc2F)c2nc(N3CCCC(O)C3=O)ccc2c1=O` (single isomer, unassigned) [Example 210] gave an Efficiency of 93.5%.

For the compound `O=C(NC(c1ccccc1Cl)C(F)(F)F)c1cn(-c2ccc(F)cc2F)c2nc(N3C[C@@H](O)CC3=O)ccc2c1=O` (single isomer, unassigned) [Example 212], the Emax worked out at 99.4%.

`O=C(NC(c1ccccc1Cl)C(F)(F)F)c1cn(-c2ccc(F)cc2F)c2nc(N3C[C@@H](O)CC3=O)ccc2c1=O` (single isomer, unassigned) [Example 213] had an Efficiency of 99.6%.

`CC(NC(=O)c1cn(-c2ccc(F)cc2F)c2nc(N3C[C@@H](O)CC3=O)ccc2c1=O)c1c(F)cccc1F` (single isomer, unassigned) [Example 215]: the Emax worked out at 100%.

With `CC(NC(=O)c1cn(-c2ccc(F)cc2F)c2nc(N3C[C@@H](O)CC3=O)ccc2c1=O)c1c(F)cccc1F` (single isomer, unassigned) [Example 216], the Efficiency was determined as 100.0%.

On to `CC[C@H](NC(=O)c1cn(-c2ccc(F)cc2F)c2nc(N3CCC(O)C3)ccc2c1=O)C(F)(F)F` (single isomer, unassigned) [Example 219], for which the Emax came to 97%.

Turning to `CC[C@H](NC(=O)c1cn(-c2ccc(F)cc2F)c2nc(N3CCC(O)C3)ccc2c1=O)C(F)(F)F` (single isomer, unassigned) [Example 220], the Efficiency came out at 93.0%.

As to `CC[C@@H](NC(=O)c1cn(-c2ccc(F)cc2F)c2nc(N3CC4CNC(=O)C4C3)ccc2c1=O)C(F)(F)F` (single isomer, unassigned) [Example 222], the Emax was 100%.

Compound `CC[C@@H](NC(=O)c1cn(-c2ccc(F)cc2F)c2nc(N3CC4CNC(=O)C4C3)ccc2c1=O)C(F)(F)F` (single isomer, unassigned) [Example 223] displayed an Efficiency of 99.0%.

With `CC[C@@H](NC(=O)c1cn(-c2ccc(F)cc2F)c2nc(N3CCC(O)C3=O)ccc2c1=O)C(F)(F)F` (single isomer, unassigned) [Example 225], the Emax was determined as 99.7%.

Consider `CC[C@@H](NC(=O)c1cn(-c2ccc(F)cc2F)c2nc(N3CCC(O)C3=O)ccc2c1=O)C(F)(F)F` (single isomer, unassigned) [Example 226], for which the Efficiency came out at 100.0%.

On to `CC(COC(F)(F)F)NC(=O)c1cn(-c2ccc(F)cc2F)c2nc(N3CC[C@H](F)C3)ccc2c1=O` (single isomer, unassigned) [Example 228], for which the Emax was 98.7%.

`CC(COC(F)(F)F)NC(=O)c1cn(-c2ccc(F)cc2F)c2nc(N3CC[C@H](F)C3)ccc2c1=O` (single isomer, unassigned) [Example 229] registered an Efficiency of 100.0%.

As to `O=C(NC(c1c(F)cccc1F)C(F)(F)F)c1cn(-c2ccc(F)cc2F)c2nc(N3CC[C@H](F)C3)ccc2c1=O` (single isomer, unassigned) [Example 242], the Emax was 96.7%.

Compound `O=C(NC(c1c(F)cccc1F)C(F)(F)F)c1cn(-c2ccc(F)cc2F)c2nc(N3CC[C@H](F)C3)ccc2c1=O` (single isomer, unassigned) [Example 243] showed an Efficiency of 98.0%.

`O=C(NC(c1c(F)cccc1F)C(F)(F)F)c1cn(-c2ccc(F)cc2F)c2nc(N3C[C@@H](O)CC3=O)ccc2c1=O` (single isomer, unassigned) [Example 245]: the Emax is 98%.

Compound `O=C(NC(c1c(F)cccc1F)C(F)(F)F)c1cn(-c2ccc(F)cc2F)c2nc(N3C[C@@H](O)CC3=O)ccc2c1=O` (single isomer, unassigned) [Example 246] yielded an Efficiency of 100.0%.

Regarding `O=C(NC(c1c(F)cccc1F)C(F)(F)F)c1cn(-c2ccc(F)cc2F)c2nc(N3CCCC(O)C3=O)ccc2c1=O` (single isomer, unassigned) [Example 248, 1-(2,4-Difluorophenyl)-N-[1-(2,6-difluorophenyl)-2,2,2-trifluoroethyl]-7-[3-hydroxy-2-oxopiperidin-1-yl]-4-oxo-1,4-dihydro-1,8-naphthyridine-3-carboxamide], the Emax is 91.7%.

With `O=C(NC(c1c(F)cccc1F)C(F)(F)F)c1cn(-c2ccc(F)cc2F)c2nc(N3CCCC(O)C3=O)ccc2c1=O` (single isomer, unassigned) [Example 249, 1-(2,4-Difluorophenyl)-N-[1-(2,6-difluorophenyl)-2,2,2-trifluoroethyl]-7-[3-hydroxy-2-oxopiperidin-1-yl]-4-oxo-1,4-dihydro-1,8-naphthyridine-3-carboxamide], the Efficiency is 89.0%.

Compound `O=C(NC(c1c(F)cccc1F)C(F)(F)F)c1cn(-c2ccc(F)cc2F)c2nc(N3CCCC(O)C3=O)ccc2c1=O` (single isomer, unassigned) [Example 250, 1-(2,4-Difluorophenyl)-N-[1-(2,6-difluorophenyl)-2,2,2-trifluoroethyl]-7-[3-hydroxy-2-oxopiperidin-1-yl]-4-oxo-1,4-dihydro-1,8-naphthyridine-3-carboxamide] displayed an Efficiency of 95.5%.

These data come from patent publication US20190367516A1 (Bayer Pharma Aktiengesellschaft, priority 2015, published 2019).
